# From PubChem BioAssay AID686978 (National Center for Advancing Translational Sciences (NCATS), 2013)
# Out of some 420,000 compounds screened, about 64,000 (15%) were called active. The inconclusive results got no clear call from the source; some entries with a clear call stand among them for comparison. Calls come from the whole dose curve; as a rule, active = well fitted inhibition curve with a large enough effect; inconclusive = small, poorly fitted or top-dose-only effect; inactive = flat fitted curve, though single readings scatter. No potency is given beside an inconclusive call; the fits are too rough.
# Assay: qHTS for Inhibitors of human tyrosyl-DNA phosphodiesterase 1 (TDP1): qHTS in cells in absence of CPT; note: nearly all actives have a fitted effect of over 55% in size
# Details: DT40 Tdp1-/- hTDP1 cells, no CPT, ATP luminescence, 48 h; activity change, negative = growth inhibition: at 46.2 µM (top of the series) unless noted
# In short: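 Stably hTDP1-transfected Tdp1-null chicken DT40 cells were treated with library compounds minus camptothecin and grown for at least 48 hr at 37 °C, after which cellular ATP was quantified by luminescence.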
# % is set by controls: 0 for no effect and ±100 for the full control effect; potency is the fitted concentration of half-maximal effect; tags give direction and shape of the fitted curve.
SMILES,Potency,"activity change, negative = growth inhibition"
O=S(=O)(c1ccccc1)c1cc(O)ccc1O,active: 7.31 µM,–
COc1ccc(OC)c(Nc2nc(N)c([N+](=O)[O-])c(N3CCOCC3)n2)c1,"inconclusive [inhibitor, single point]",–
O=C(NCC(c1cccs1)N1CCOCC1)c1cccc([N+](=O)[O-])c1 (stereo not given),inactive,–
O=C(COC(=O)/C=C/c1ccc2c(c1)OCO2)NC1CCS(=O)(=O)C1 (stereo not given),inactive,–
CCOc1ccc(-c2ccc(C3=CC(=O)C[C@H](c4ccc(F)cc4)C3)cc2)cc1,inactive,–
Cc1cccc(-c2noc(CN(C(=O)c3ccccc3Cl)C(C)C)n2)c1,"inconclusive [inhibitor, single point]",–
Cc1cc(OC(=O)c2cccc(Br)c2)c([N+](=O)[O-])c(=O)[nH]1,inactive,–
COc1cc(C)ccc1S(=O)(=O)NC(=O)C1(C)CCN1C(=O)C1(c2ccc(Cl)cc2)CCC1 (stereo not given),inactive,–
O=C(c1ccc2c(c1)OCCO2)N(Cc1cccnc1)c1nc2c(F)cccc2s1,"inconclusive [inhibitor, single point]",–
COC(=O)Cn1ncc2c(C)n(Cc3ccccc3)c(C)c2c1=O,"inconclusive [inhibitor, single point]",–
O=C(CCCN1C(=O)/C(=C/c2ccccc2Cl)SC1=S)NNC(=O)c1ccccc1Cl,active: 20.6 µM,–
CCOc1ccccc1Nc1nnc(SCc2nnc(-c3cc(OC)c(OC)c(OC)c3)o2)s1,active: 13 µM,–
O=C(COC(=O)CNC(=O)c1ccco1)NCc1ccc(F)cc1,inactive,–
COc1ccc(/C=C/C(=O)c2ccccc2)cc1Cn1nnc2ccccc21,active: 23.1 µM,–
O/N=C(\c1ccccn1)C1CC1c1ccccc1 (stereo not given),"inconclusive [inhibitor, single point]",–
CC(C)N(C)Cc1nnnn1CC(=O)N(C)Cc1ccc(F)cc1,inactive,–
Cc1ccc(CNC(=O)C(=O)NCCC2CCCCN2S(=O)(=O)c2ccc(C)cc2)cc1 (stereo not given),"inconclusive [inhibitor, single point]",–
N#Cc1c(-c2ccccc2)nc2n1CCS2,"inconclusive [inhibitor, partial curve]",–
Cc1ccc(C)c(NC(=O)C(OC(=O)c2ccc(C)s2)c2ccccc2)c1 (stereo not given),"inconclusive [inhibitor, single point]",–
CC1CCN(S(=O)(=O)c2ccc(C(=O)Nc3sccc3C(N)=O)cc2)CC1,"inconclusive [inhibitor, single point]",–
COc1ccc(N2CCN(Cc3cc(=O)oc4cc5c(cc34)CCCC5)CC2)cc1,active: 13 µM,–
COc1ccc(-c2nc3cc(NC(=O)Cc4ccc(OC)c(OC)c4)ccc3o2)cc1,"inconclusive [inhibitor, single point]",–
Cc1cccc(C(=O)N2CCN(c3ccc([N+](=O)[O-])c(N4CCOCC4)c3)CC2)c1,"inconclusive [inhibitor, partial curve]",–

SMILES,Potency,"activity change, negative = growth inhibition"
Cc1ccc(CN2[C@H]3CCCC[C@@H]3OCCS2(=O)=O)cc1,"inconclusive [inhibitor, single point]",–
CCC(=O)Nc1nnc(SCC(=O)Nc2ccc3c(c2)OCO3)s1,"inconclusive [inhibitor, single point]",–
Cn1c(C(=O)NCCc2ccccc2)cc2c(=O)n3ccccc3nc21,"inconclusive [inhibitor, partial curve]",–
COc1ccc(C(=O)N2CCC3(CC2)CN(c2ccccn2)C3)cc1,"inconclusive [inhibitor, single point]",–
COc1ccc(-c2nc3c4ccccc4ccn3c2Cc2ccsc2)cc1OC,"inconclusive [inhibitor, single point]",–
COc1ccc(Cn2c(CNS(=O)(=O)c3ccc4c(c3)CCCC4)nc3cccnc32)cc1,"inconclusive [inhibitor, single point]",–
COc1ccc(NC(=O)c2ccc(Oc3ncccn3)cc2)cc1,inactive,–
CN(C)c1ccc(NC(=O)Cn2cc3c(n2)CCCC3)cc1,"inconclusive [inhibitor, single point]",–
CC(O)CSc1nc2c(c(=O)n(C)c(=O)n2C)n1CCCc1ccccc1 (stereo not given),"inconclusive [inhibitor, single point]",–
Cc1nn(C(C)(C)C)c(OC(=O)c2cccs2)c1S(=O)(=O)c1ccccc1,–,inconclusive: -30.4% [inhibitor]
COc1ccccc1NS(=O)(=O)c1cc(NC(=O)c2sccc2C)ccc1N1CCCC1,"inconclusive [inhibitor, single point]",–
COc1ccc(CNC(=O)CCc2c(C)nn(-c3ccc(N4CCCCC4)nn3)c2C)c(OC)c1,"inconclusive [inhibitor, single point]",–
CCOc1ccccc1NC(=O)c1ccc2[nH]c(C)c(C)c2c1,active: 25.9 µM,–
COc1ccc(OCCCC(=O)N2CCCc3ccccc32)cc1,"inconclusive [inhibitor, single point]",–
Cc1ccc2c(c1)c1c(c(=O)n(Cc3ccccc3)c(=O)n1Cc1cccc(C(F)(F)F)c1)n2C,inactive,–
COc1ccccc1NC(=O)c1cccc(N2C(=O)C3C4C=CC(C4)C3C2=O)c1 (stereo not given),inactive,–
O=C(COC(=O)Cc1ccc(Cl)c(Cl)c1)NCc1ccco1,inactive,–
COc1ccc(C(=O)Nc2sc(C)c(C)c2CN2CC(C)OC(C)C2)cc1 (stereo not given),"inconclusive [inhibitor, partial curve]",–
C=C1c2ccccc2NC(=S)N1Cc1ccc2c(c1)OCO2,active: 4.11 µM,–
COC(=O)[C@]12CCCCC=C1N(Cc1ccccc1)C(=O)[C@H](CC(=O)NCC13CC4CC(CC(C4)C1)C3)C2,"inconclusive [inhibitor, single point]",–
C(=N\Nc1nn2cnnc2c2ccccc12)/c1ccco1,"inconclusive [inhibitor, single point]",–
N#C/C(=C(/O)c1ccc(Cl)c([N+](=O)[O-])c1)c1nc2ccccc2[nH]1,"inconclusive [inhibitor, partial curve]",–
